The campaign covered roughly 310,000 compounds. About 14,000 (4.5%) showed an effect of 50% or more. The effect is printed as a negative number. This is one part of the list.
These molecules were tested against human ether-à-go-go-related gene (hERG) potassium channel (human, UniProt Q12809) (assay: primary screen, population patch clamp on CHO cells stably expressing hERG).
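Note: peak tail current of the secondary pulse compared with the same well before compound.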

Sequence of human ether-à-go-go-related gene (hERG) potassium channel (Q12809 whole entry, looked up): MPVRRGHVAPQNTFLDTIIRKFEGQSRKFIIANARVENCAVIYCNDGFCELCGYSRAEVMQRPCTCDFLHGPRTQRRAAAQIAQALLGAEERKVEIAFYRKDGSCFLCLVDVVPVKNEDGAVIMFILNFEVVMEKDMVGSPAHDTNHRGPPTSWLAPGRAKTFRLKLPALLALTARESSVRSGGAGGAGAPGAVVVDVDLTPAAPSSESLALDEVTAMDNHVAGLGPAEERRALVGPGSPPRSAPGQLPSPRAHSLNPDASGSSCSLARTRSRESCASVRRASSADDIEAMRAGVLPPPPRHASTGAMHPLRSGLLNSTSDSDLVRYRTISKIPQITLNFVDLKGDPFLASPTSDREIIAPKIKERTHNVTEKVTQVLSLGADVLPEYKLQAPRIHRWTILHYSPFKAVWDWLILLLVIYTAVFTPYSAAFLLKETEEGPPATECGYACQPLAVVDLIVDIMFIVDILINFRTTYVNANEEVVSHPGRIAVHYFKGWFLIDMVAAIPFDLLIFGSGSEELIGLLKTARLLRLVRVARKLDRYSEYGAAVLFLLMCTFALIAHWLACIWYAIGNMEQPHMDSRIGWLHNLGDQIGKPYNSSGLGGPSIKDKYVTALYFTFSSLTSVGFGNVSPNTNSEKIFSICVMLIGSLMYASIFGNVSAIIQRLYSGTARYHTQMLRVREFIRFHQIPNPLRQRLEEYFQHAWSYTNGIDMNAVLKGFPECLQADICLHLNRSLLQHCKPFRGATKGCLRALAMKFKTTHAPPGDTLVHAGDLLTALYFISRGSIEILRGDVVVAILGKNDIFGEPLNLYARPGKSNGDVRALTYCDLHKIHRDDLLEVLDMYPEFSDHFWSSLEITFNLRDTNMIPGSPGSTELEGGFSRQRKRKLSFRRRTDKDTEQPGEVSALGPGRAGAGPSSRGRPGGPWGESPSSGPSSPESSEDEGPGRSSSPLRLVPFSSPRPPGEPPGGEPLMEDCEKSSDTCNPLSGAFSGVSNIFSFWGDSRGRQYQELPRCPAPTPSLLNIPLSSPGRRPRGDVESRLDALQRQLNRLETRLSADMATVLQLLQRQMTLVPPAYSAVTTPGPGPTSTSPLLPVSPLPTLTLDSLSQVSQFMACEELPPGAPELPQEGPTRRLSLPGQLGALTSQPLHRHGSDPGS

In order of falling “hERG current change (%, negative = inhibition) at 10uM” value:
1. Cc1sc2nc(C3CCCCC3)nc(SCC(=O)N3CC(=O)Nc4ccccc43)c2c1C  52.8%
2. COc1ccc(C(=O)N/C(=C\c2ccc3c(c2)OCO3)C(=O)Nc2cccc(C(=O)O)c2)cc1  30.2%
3. N#Cc1c(Cn2cncn2)nc(=O)n(-c2ccc(Cl)cc2)c1N  27.6%
4. O=C(O)c1nccnc1C(=O)Nc1ccc(Cl)cc1Cl  27.5%
5. Cc1ccc(NC(=O)CCS(=O)(=O)c2ccc(Br)cc2)nc1  25.9%
6. O=C1CCCS(=O)(=O)c2ccccc21  23.8%
7. CCOc1ccccc1OCC(=O)Nc1ccc(Cl)cc1C(=O)c1ccccc1  16.8%
8. CCn1cc(C(=O)N[C@@H](CCSC)C(=O)NCCCOC)c(=O)c2cc3c(cc21)OCO3  15.4%
9. CC1CCN(c2c(NCC3CCC(C(=O)N4CCCCC4)CC3)c(=O)c2=O)CC1 (stereo not drawn)  14.5%
10. COc1ccccc1-c1nc(-c2ccc(C(=O)O)cc2)no1  14.5%
11. Cn1c(=O)c2c(ncn2CC(=O)Nc2ccccc2)n(C)c1=O  13.9%
12. Cc1c(Br)c([N+](=O)[O-])nn1CC(=O)Nc1c(C)n(C)n(-c2ccccc2)c1=O  13.3%
13. CC12CN3CC(C)(CN(C1)C3c1ccncc1)C2=O (stereo not drawn)  13%
14. Cc1ccccc1-n1nc2c(c1NC(=O)c1ccc(S(=O)(=O)N(C)C)cc1)CSC2  12.9%
15. O=C(O)c1cc(-c2ccc(Cl)c(Cl)c2)n(-c2ccccc2)n1  12.6%
16. O=C(c1ccco1)N1N=C(c2ccco2)CC1c1ccc(Cl)cc1Cl (stereo not drawn)  11.9%
17. Cc1cc(C)c(OCCN(C)Cc2ccccc2)c(Br)c1  11.6%
18. CCC1(c2ccccc2)NC(=O)N(CC#N)C1=O (stereo not drawn)  10.6%
19. NS(=O)(=O)c1ccc(Nc2ncccc2[N+](=O)[O-])cc1  9.69%
20. Cc1cc(-c2ccc(C(=O)O)s2)cnc1N  9.32%
21. COc1ccc(C(=O)O/N=C(\N)c2ccccn2)c(OC)c1  9.32%
22. CC(Oc1ccc(Br)cc1)C(=O)N1CCc2ccccc21 (stereo not drawn)  9.22%
23. CCN1CCCC1CNS(=O)(=O)c1ccc(F)c(Cl)c1 (stereo not drawn)  9.12%
24. CCOc1ccc(Oc2ccc(-c3nnc(-c4ccccc4)o3)cc2[N+](=O)[O-])cc1  8.53%
25. CC(=O)C1C(c2ccc(Br)cc2)C2C(C)=NN=C2CC1(C)O (stereo not drawn)  7.87%
26. CCn1c(SCC(=O)Nc2ccc(N3CCOCC3)cc2)nnc1C1CC1  7.69%
27. Cc1ccc(S(=O)(=O)N2CCN(C(=S)NCCc3ccccc3)CC2)cc1  7.16%
28. COc1ccc2sc(-c3ccc(N(C)C)cc3)c(C#CCCO)c2c1  6.83%
29. CC(O)CNCCOc1ccccc1-c1ccccc1.O=C(O)C(=O)O (stereo not drawn)  6.01%
30. COc1ccc(S(=O)(=O)CC(=O)c2cc3cccc(C)c3oc2=O)cc1  5.51%
31. Cc1ccc(S(=O)(=O)N(C)CC(=O)NC2CC(C)(C)NC(C)(C)C2)cc1  5.34%
32. Cc1cccc(C)c1NC(=O)COC(=O)C1CC1  5.29%
33. Cc1nc(C)n(C(C)CNC(=O)c2ccccc2)n1 (stereo not drawn)  4.93%
34. COc1ccc(S(=O)(=O)N(C)C)cc1NC(=O)COC(=O)c1nn(C)c(=O)c2ccccc12  4.64%
35. Cc1ccc(NC(=O)COC(=O)COc2cccc3c2OC(C)(C)C3)cc1S(=O)(=O)N1CCOCC1  4.41%
36. COC(=O)C(N)Cc1ccc(OC)c([N+](=O)[O-])c1.Cl (stereo not drawn)  3.86%
37. Cc1cc(NS(=O)(=O)c2ccccc2)cc(Cl)c1O  3.18%
38. C=CCOc1ccc(/C=N/n2cncn2)cc1OC  3.13%
39. CC(=O)NS(=O)(=O)c1ccc(NC(=O)c2cccc(OCc3c(C)noc3C)c2)cc1  2.25%
40. CNC(=O)CC12CC3CC(CC(C3)C1)C2  2.22%
41. O=C(CN(C(=O)c1ccc(Cl)cc1)C1CCCCC1)Nc1ccc(Cl)c([N+](=O)[O-])c1  1.58%
42. O=C(CCNC(=O)c1ccc(Cl)cc1)Nc1ccccc1Cl  0.957%
43. COc1ccccc1C(=O)OCc1c(F)cccc1Cl  -1.14%
44. COc1ccc(N=C2NC(=O)C(CC(=O)NCCc3ccc(OC)c(OC)c3)S2)cc1 (stereo not drawn)  -1.99%
45. Cc1ccc(OCC(=O)N2CCN(C(=O)c3cccnc3)CC2)cc1  -4.29%
46. CCOc1cc(C(c2c(C)[nH][nH]c2=O)c2c(C)[nH][nH]c2=O)ccc1OC(=O)c1cccc([N+](=O)[O-])c1  -4.87%
47. Cc1csc(=O)n1CC(=O)Nc1nc2ccccc2s1  -4.99%
48. CC(C)c1cc(Br)c(NC(=O)Nc2cccnc2)c(Br)c1  -6.29%
49. CCOC(=O)N1CCN(C(=O)CCn2c(=S)[nH]c3cc(OCC)c(OCC)cc3c2=O)CC1  -7.21%
50. O=C(O)CNC(=O)/C=C/c1c(Cl)cccc1Cl  -7.7%
51. C=CCc1cccc(/C=N/c2ncn[nH]2)c1O  -8.25%
52. O=C(Nc1nccs1)c1cc(Cl)ccc1[N+](=O)[O-]  -9.55%
53. O=C(NC1CCCCC1)N1CCC(c2nc3ccccc3[nH]2)CC1  -10.7%
54. COCCN(Cc1ccco1)C(=O)C1CCCN(c2ncnc3c2nc2n3CCCCC2)C1 (stereo not drawn)  -14.3%
55. c1ccc(Cc2nnc(N3CCOCC3)c3ccccc23)cc1  -14.4%
56. O=C(c1ccc2c(c1)N(Cc1ccccc1)C(=O)c1ccccc1S2)N1CCCC1  -19.8%
57. O=C(Cn1c(-c2ccc(Cl)cc2)noc1=O)N1CCN(c2ccccc2F)CC1  -34.4%
